The values that follow come from the GPR68 mutational scans of Howard et al. (2025).

B1: GPR68, Q15743 (parent)
chain: MGNITADNSSMSCTIDHTIHQTLAPVVYVTVLVVGFPANCLSLYFGYLQIKARNELGVYLCNLTVADLFYICSLPFWLQYVLQHDNWSHGDLSCQVCGILLYENIYISVGFLCCISVDRYLAVAHPFRFHQFRTLKAAVGVSVVIWAKELLTSIYFLMHEEVIEDENQHRVCFEHYPIQAWQRAINYYRFLVGFLFPICLLLASYQGILRAVRRSHGTQKSRKDQIQRLVLSTVVIFLACFLPYHVLLLVRSVWEASCDFAKGVFNAYHFSLLLTSFNCVADPVLYCFVSETTHRDLARLRGACLAFLTCSRTGRAREAYPLGAPEASGKSGAQGEEPELLTKLHPAFQTPNSPGSGGFPTGRLA

In data set [1] the parent is B1. As to the kind of experiment: cAMP reporter score (Enrich2 score, wild type = 0); higher = more signal; HEK293T, FACS bins.
In data set [2] the parent is B1. Put plainly: surface expression score (Enrich2 score, wild type = 0); higher = more signal; HEK293T, FACS bins.

Scores with a large standard error are left out. Two further conditions of the source, in which the scores hardly spread, are not listed. In variant names, del marks residues removed and ins residues inserted between the two positions. For some of these results: The concentration of ogerin is not given here.

Turning to E337A, the cAMP reporter score in data set [1] (pH 5.5) came to 0.755; in data set [1] (pH 6), 0.901; in data set [1] (pH 6, modulator: ogerin), 1.09; in data set [1] (pH 6.5, modulator: ogerin), 1.23. For the same variant, the surface expression score in data set [2] is -0.135.
For E337K, in that order: -0.165, 0.396, -0.268, -0.34 and -0.776.
For E337P, in that order: 0.221, 0.014, 0.212, 0.523 and -0.088.
For E337G, in that order: 1.63, 0.825, 2.09, 1.35 and 0.775.
E337Y: the cAMP reporter score is -0.469 in data set [1] (pH 5.5); 0.859 in data set [1] (pH 6); -0.329 in data set [1] (pH 6, modulator: ogerin); -0.201 in data set [1] (pH 6.5, modulator: ogerin). The surface expression score in data set [2] was -0.731.
In the case of E337W, the cAMP reporter score in data set [1] (pH 5.5) is -0.115; in data set [1] (pH 6), -0.643; in data set [1] (pH 6, modulator: ogerin), 0.01; in data set [1] (pH 6.5, modulator: ogerin), -0.207.
Take E337D: the cAMP reporter score in data set [1] (pH 5.5) was 0.361; in data set [1] (pH 6) it was -0.244; in data set [1] (pH 6, modulator: ogerin), 0.109; in data set [1] (pH 6.5, modulator: ogerin), 0.274. Besides, the surface expression score in data set [2] was -0.064.
For E337Q, in that order: 1.29, 0.738, 1.25, 1.45 and 0.19.
For E337F, in that order: 1.09, -0.675, -0.306, -0.191 and 0.04.
For E337I, in that order: 0.455, 0.279, 1.3, -0.455 and 2.3.
Take E337L: the cAMP reporter score in data set [1] (pH 5.5) was -0.119; in data set [1] (pH 6), -0.056; in data set [1] (pH 6, modulator: ogerin), -0.516; in data set [1] (pH 6.5, modulator: ogerin), -0.405. Besides, the surface expression score in data set [2] was -0.419.
With E337S, the cAMP reporter score in data set [1] (pH 5.5) is 0.313; in data set [1] (pH 6, modulator: ogerin) it was -0.703; in data set [1] (pH 6.5, modulator: ogerin), -1.98. For the same variant, the surface expression score in data set [2] amounted to 2.08.
On to E337C, for which the cAMP reporter score in data set [1] (pH 5.5) was -0.427; in data set [1] (pH 6) it was -1.74; in data set [1] (pH 6, modulator: ogerin), 0.773; in data set [1] (pH 6.5, modulator: ogerin) it was 0.269.
On to E337R, for which the cAMP reporter score in data set [1] (pH 5.5) was 0.153; in data set [1] (pH 6) it was -1.06; in data set [1] (pH 6, modulator: ogerin), 0.238; in data set [1] (pH 6.5, modulator: ogerin) it was 0.273. Further, the surface expression score in data set [2] is -0.133.
With E339T, the cAMP reporter score was determined as 0.902 in data set [1] (pH 5.5); 0.128 in data set [1] (pH 6, modulator: ogerin); 0.656 in data set [1] (pH 6.5, modulator: ogerin). Also, in data set [2], the surface expression score is 0.108.
For E339C, in that order: 0.636, 0.347, -0.538 and 0.406.
Consider E339H, for which the cAMP reporter score in data set [1] (pH 5.5) was found to be 0.812; in data set [1] (pH 6), 0.775; in data set [1] (pH 6, modulator: ogerin), 0.87; in data set [1] (pH 6.5, modulator: ogerin) it was 0.463. In data set [2], the surface expression score was 0.665.
For E339S, in that order: 1.14, 0.882, 0.768, 1.33 and 1.51.
In the case of E339L, the cAMP reporter score is 0.56 in data set [1] (pH 5.5); 1.22 in data set [1] (pH 6, modulator: ogerin); -0.124 in data set [1] (pH 6.5, modulator: ogerin). In data set [2], the surface expression score came out at 0.143.
For E339I, in that order: 1.09, 0.086, 0.226 and 0.051.
Consider E339M, for which the cAMP reporter score was -0.359 in data set [1] (pH 5.5); -0.808 in data set [1] (pH 6); -0.444 in data set [1] (pH 6, modulator: ogerin); -0.814 in data set [1] (pH 6.5, modulator: ogerin). Moreover, the surface expression score in data set [2] is 0.022.
For E339A, the cAMP reporter score in data set [1] (pH 5.5) is 0.797; in data set [1] (pH 6), -0.236; in data set [1] (pH 6, modulator: ogerin) it was 0.853; in data set [1] (pH 6.5, modulator: ogerin), 0.385. Also, the surface expression score in data set [2] was 0.014.
Regarding E339G, the cAMP reporter score in data set [1] (pH 5.5) is 1.51; in data set [1] (pH 6), 0.909; in data set [1] (pH 6, modulator: ogerin), 1.41; in data set [1] (pH 6.5, modulator: ogerin), 1.26. In data set [2], the surface expression score amounted to 0.356.
For E339V, in that order: 0.074, 0.979, -0.044, 0.921 and 0.139.
For the variant E339W, the cAMP reporter score was -0.637 in data set [1] (pH 5.5); -0.896 in data set [1] (pH 6); -0.361 in data set [1] (pH 6, modulator: ogerin); -1.01 in data set [1] (pH 6.5, modulator: ogerin). Moreover, the surface expression score in data set [2] was -0.852.
For E339D, in that order: 0.789, 0.923, 0.036, 0.71 and 0.079.
For E339Y, in that order: 0.207, -0.269, -0.062, -0.136 and -0.32.
In the case of E339F, the cAMP reporter score in data set [1] (pH 5.5) was 1.55; in data set [1] (pH 6, modulator: ogerin), 2.7; in data set [1] (pH 6.5, modulator: ogerin), 1.94. Also, the surface expression score in data set [2] was 2.62.
As for E339Q, the cAMP reporter score in data set [1] (pH 5.5) is -0.444; in data set [1] (pH 6, modulator: ogerin) it was -0.509; in data set [1] (pH 6.5, modulator: ogerin) it was -1.01. The surface expression score in data set [2] is 0.567.
E339R: the cAMP reporter score in data set [1] (pH 5.5) was 1.33; in data set [1] (pH 6), -0.17; in data set [1] (pH 6, modulator: ogerin) it was 0.517; in data set [1] (pH 6.5, modulator: ogerin), 0.539. In addition, the surface expression score in data set [2] worked out at 1.03.
For E339K, in that order: -0.035, 0.01, -0.335, 0.28 and 0.285.
For E339P, in that order: -0.148, -1.21, -0.419, 0.551 and 0.091.
